Source: PubChem BioAssay AID485294 (National Center for Advancing Translational Sciences (NCATS), 2010)
In all, about 370,000 compounds went through this assay and about 150 (0.041%) were called active. Inconclusive results, whose numbers are uncertain, are shown with a selection of clear calls. The call rests on the fitted dose curve; in most records, active means well fitted inhibition curve with a large enough effect; inconclusive means small, poorly fitted or top-dose-only effect; inactive means flat fitted curve, though single readings scatter. Potencies of inconclusive entries are left out as doubtful fits.
Further: nearly all actives have a fitted effect of over 25% in size.
Potency means the concentration at half of the fitted maximal effect; tags describe the fitted curve by direction and shape.

Each molecule was assayed against Beta-lactamase (Escherichia coli (strain K12)) (UniProt P00811) (assay: qHTS Inhibitors of AmpC Beta-Lactamase (assay with detergent)). Conditions: AmpC hydrolysis of nitrocefin, absorbance 480 nm, 0.01% Triton; series mostly up to 114 µM.
Sequence of UniProt P00811 (P00811 whole entry, looked up): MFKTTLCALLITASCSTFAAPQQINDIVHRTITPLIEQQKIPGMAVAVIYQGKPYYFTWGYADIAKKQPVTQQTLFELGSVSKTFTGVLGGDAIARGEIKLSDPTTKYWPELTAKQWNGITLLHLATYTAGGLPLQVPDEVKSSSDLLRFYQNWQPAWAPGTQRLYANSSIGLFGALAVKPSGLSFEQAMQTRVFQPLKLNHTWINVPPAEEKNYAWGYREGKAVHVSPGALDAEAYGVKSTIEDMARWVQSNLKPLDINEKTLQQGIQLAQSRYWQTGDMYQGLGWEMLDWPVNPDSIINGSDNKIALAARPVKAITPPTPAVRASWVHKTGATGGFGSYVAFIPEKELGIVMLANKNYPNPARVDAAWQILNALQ
Outline: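 AmpC (5.3 nM in the dispensed reagent) in 20 mM phosphate pH 7.0 with 0.01% (detergent screen) or 0.0001% Triton X-100 was preincubated with compounds for 15 min at room temperature. Nitrocefin was then added from an 800 uM solution, and hydrolysis was followed at 480 nm.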
In the case of `OCCN1CCN(C(=S)Nc2cccc(C(F)(F)F)c2)CC1`, the Potency is reported as inconclusive [inhibitor, partial curve, poor fit]. `O=C(COC(=O)CNC(=O)c1cccs1)Nc1ccc(C(F)(F)F)cc1[N+](=O)[O-]` was tested, and the Potency was inconclusive [inhibitor, full curve, poor fit]. For `O=S(=O)(c1ccc(Cl)cc1)N1CCN(Cc2c[nH]c3ccccc23)CC1`, the Potency was “inactive”. `O=C(N/N=C/c1ccc([N+](=O)[O-])cc1)c1ccc(NS(=O)(=O)c2cccs2)cc1` was tested, and the Potency was inconclusive [inhibitor, full curve, poor fit]. `CCCOC1OC(=O)c2c1ccc(OC)c2OC` (stereo not drawn) was tested, and the Potency was inconclusive [inhibitor, single point]. In the case of `CCOC(=O)C1CCN(S(=O)(=O)c2cc(-c3onc(C)c3C)ccc2OC)CC1`, the Potency is reported as “inactive”. With `CN(Cc1ccc(Br)cc1)CC(O)COc1cccc(Br)c1` (stereo not drawn) the Potency was inconclusive [inhibitor, single point]. `c1ccc2nc3ccccc3nc2c1` was tested, and the Potency was inconclusive [inhibitor, full curve]. In the case of `CC(Sc1nnc(-c2ccco2)n1C)C(=O)N(C)C1CCCCC1` (stereo not drawn), the Potency is reported as inconclusive [inhibitor, full curve, poor fit]. `COCCn1nnnc1C(c1ccccn1)N1CCN(c2cccc(C)c2C)CC1` (stereo not drawn) was tested, and the Potency was inconclusive [inhibitor, single point]. In the case of `Cc1ccc(NC(=O)C(C)Sc2nc3nc(C)cc(C)n3n2)cc1` (stereo not drawn), the Potency is reported as inconclusive [inhibitor, partial curve]. `CCCSc1nnc(N)s1` was tested, and the Potency was inconclusive [inhibitor, full curve, poor fit]. In the case of `Cc1coc2cc3oc(=O)c(CCC(=O)NCCCN4CCCC4=O)c(C)c3cc12`, the Potency is reported as inconclusive [inhibitor, full curve]. For `COc1ccc(CNCCc2ccc(Cl)cc2Cl)cc1`, the Potency was “inactive”. In the case of `CN(C(=O)c1cc2c(=O)oc3ccccc3c2s1)c1ccc(F)cc1`, the Potency is reported as inconclusive [inhibitor, single point]. For `COc1ccccc1N1CCN(S(=O)(=O)CCNC(=O)C2CCCC2)CC1`, the Potency was inconclusive [inhibitor, partial curve]. In the case of `Nn1c(COc2ccccc2F)nnc1SCC(=O)NC1CCCCC1`, the Potency is reported as inconclusive [inhibitor, full curve, poor fit]. In the case of `CCN1CCN(C(=O)CN(c2ccccc2C)S(C)(=O)=O)CC1`, the Potency is reported as inconclusive [inhibitor, full curve, poor fit]. For `CCN(CC)S(=O)(=O)c1ccc(/C=C/C(=O)Nc2ccccc2N2CCOCC2)cc1`, the Potency was “inactive”. For `CC(Oc1ccc(Br)cc1)C(=O)N1CCC(C(N)=O)CC1` (stereo not drawn), the Potency was inconclusive [inhibitor, partial curve]. `COc1ccc(C(CNC(=O)CCNC(=O)c2ccc(Br)cc2)N2CCOCC2)cc1` (stereo not drawn) was tested, and the Potency was inconclusive [inhibitor, full curve, poor fit]. With `CC(=O)C1=C(O)CC(c2ccccc2)CC1=NCCc1c(C)[nH]c2ccc(C)cc12` (stereo not drawn) the Potency was “inactive”. `O=C(COC(=O)c1n[nH]c2ccccc12)NC(=O)NC12CC3CC(CC(C3)C1)C2` was tested, and the Potency was inconclusive [inhibitor, partial curve]. For `COc1ccc(CCn2c(N)cc(=O)[nH]c2=S)cc1OC`, the Potency was inconclusive [inhibitor, full curve]. `COc1ccccc1CNC(=O)C1CCN(S(=O)(=O)c2ccc(N3CCCC3=O)cc2)CC1` was tested, and the Potency was “inactive”. For `COc1ccc(CCNC(=O)COC(=O)c2cnc(C)cn2)cc1OC`, the Potency was inconclusive [inhibitor, partial curve]. With `Cc1sc2ncnc(SCc3ccco3)c2c1C` the Potency was inconclusive [inhibitor, partial curve, poor fit]. `O=C(c1nnsc1S(=O)(=O)c1ccc(Cl)cc1)N1CCOCC1` was tested, and the Potency was “inactive”. In the case of `Cc1nn(-c2ccccc2)c(C)c1NC(=O)COC(=O)/C=C/c1ccccc1`, the Potency is reported as inconclusive [inhibitor, partial curve, poor fit]. `O=C(CCc1n[nH]c(=O)[nH]c1=O)Nc1cccc([N+](=O)[O-])c1` was tested, and the Potency was “inactive”. With `COc1cc(OC)c(NC(=O)c2ccc(Br)o2)cc1Cl` the Potency was inconclusive [inhibitor, full curve, poor fit]. In the case of `CSc1nc(-c2ccc(C)cc2)nc(C(Cl)Cl)n1`, the Potency is reported as “inactive”. For `COc1cccc(C(=O)COc2ccc3c(C)c(Cc4ccccc4)c(=O)oc3c2C)c1`, the Potency was inconclusive [inhibitor, partial curve, poor fit]. With `Cc1c(C)c2cc(Cl)c(O)c(CN(C)C)c2oc1=O` the Potency was inconclusive [inhibitor, full curve, poor fit]. For `COc1ccc(Cn2nnnc2C(CC(C)C)N2CCN(c3ccccc3)CC2)cc1` (stereo not drawn), the Potency was “inactive”. With `CC(C)CNC(=O)COc1cccc(C(=O)NCc2ccccc2)c1` the Potency was inconclusive [inhibitor, full curve]. `COc1ccc(/C=C/C(=O)N2CC(C)OC(C)C2)cc1OC` (stereo not drawn) was tested, and the Potency was inconclusive [inhibitor, full curve, poor fit]. `CCOc1ccc(C(=O)Nc2ccc(N3CCCC3)cc2)cc1` was tested, and the Potency was “inactive”. `CCOc1ccc(C(=O)NCCc2csc(-c3ccc(C(F)(F)F)cc3)n2)cc1OCC` was tested, and the Potency was “inactive”. In the case of `COC(=O)CCNC(=O)Cn1cnc2sc3c(c2c1=O)CCCC3`, the Potency is reported as inconclusive [inhibitor, single point]. In the case of `CNC(=O)c1ccsc1NC(=O)c1ccc(S(=O)(=O)N2CCc3ccccc32)cc1`, the Potency is reported as inconclusive [inhibitor, full curve]. In the case of `Cn1c(=S)n(C)c2ccccc21`, the Potency is reported as inconclusive [inhibitor, partial curve]. With `CSc1ccc(S(=O)(=O)NC2CC2)cc1` the Potency was inconclusive [inhibitor, full curve, poor fit]. `CCOC(=O)C1CCCN(C(=O)c2ccccc2SCCOC)C1` (stereo not drawn) was tested, and the Potency was inconclusive [inhibitor, full curve, poor fit]. For `Cc1ccc(C)c(COC(=O)c2cccc(S(=O)(=O)N3CCCC3)c2)c1`, the Potency was inconclusive [inhibitor, full curve, poor fit]. With `COc1ccc(NC(=O)c2ccc3c(=O)n4nc(Nc5cc(C)ccc5C)sc4nc3c2)cc1` the Potency was “inactive”. For `CNC[C@@H](CC1CCCCC1)NC[C@H](CC(C)C)NCCc1cccc(C(F)(F)F)c1`, the Potency was “inactive”. In the case of `Cc1ccc(C)c(NC(=O)c2ccccn2)c1`, the Potency is reported as inconclusive [inhibitor, full curve]. With `COC(=O)c1ccccc1OC(=O)c1ccc(Br)o1` the Potency was inconclusive [inhibitor, full curve, poor fit]. For `COc1cc(OC)c(OC)cc1CN(C)CCc1ccccn1`, the Potency was inconclusive [inhibitor, full curve]. In the case of `Cn1cccc1Cc1nnc(SCC(=O)Nc2ccc(F)cc2F)n1-c1ccc(F)cc1`, the Potency is reported as inconclusive [inhibitor, full curve, poor fit]. `CC(C)=CC1C(C(=O)NCCOc2ccccc2)C1(C)C` (stereo not drawn) was tested, and the Potency was inconclusive [inhibitor, partial curve, poor fit]. With `CCOc1ccc2nc(N3CCC(C(=O)N4CCN(c5ccccn5)CC4)CC3)sc2c1` the Potency was inconclusive [inhibitor, full curve, poor fit]. For `Cc1c(NC(=O)CN2C(=O)NC3(CCCC3)C2=O)c(=O)n(-c2ccccc2)n1C`, the Potency was “inactive”. With `CC1CCCC(C)N1C(=O)CCN1C(=O)C2C3C=CC(C3)C2C1=O` (stereo not drawn) the Potency was inconclusive [inhibitor, full curve, poor fit]. With `COc1ccccc1/C=C/C(=O)NC(=S)NCC1CCCO1` (stereo not drawn) the Potency was inconclusive [inhibitor, single point]. `CS(=O)(=O)c1ccc(C(=O)Nc2cccc(-c3nc4ccccc4[nH]3)c2)cc1` was tested, and the Potency was “inactive”. `N#CC[C@H](Cc1ccccc1)N1CC[C@@H](O)CCC1=O` was tested, and the Potency was inconclusive [inhibitor, partial curve]. `CCc1nnc(SCC(=O)N(C)c2ccccc2)c2cc3sccc3n12` was tested, and the Potency was “inactive”. For `CC(=O)c1cn(CCCOc2ccccc2)c2ccccc12`, the Potency was “inactive”. With `O=C(CSc1nc2c(c(=O)n1-c1ccc(Cl)cc1)SCC2)Nc1ccc2c(c1)OCCO2` the Potency was inconclusive [inhibitor, full curve, poor fit]. `CC1CCCN(C(C(=O)Nc2ccc3c(c2)OCO3)c2ccccc2)C1` (stereo not drawn) was tested, and the Potency was inconclusive [inhibitor, partial curve, poor fit]. `CC(C)C(=O)c1cn(CC(=O)NCc2ccco2)c2ccccc12` was tested, and the Potency was inconclusive [inhibitor, partial curve]. For `O=C(O)CCCN=Cc1c(O)c2ccccc2oc1=O`, the Potency was “inactive”. With `COc1ccccc1NS(=O)(=O)c1cccc(C(=O)NCC(c2ccco2)N(C)C)c1` (stereo not drawn) the Potency was inconclusive [inhibitor, single point]. For `CCOC(=O)c1c(NC(=O)CCN2C(=O)c3cccc([N+](=O)[O-])c3C2=O)sc(C(=O)OC(C)C)c1C`, the Potency was inconclusive [inhibitor, full curve, poor fit]. In the case of `Cc1ccccc1-c1nc(CN2CCC(C(=O)NCCCN3CCOCC3)CC2)c(C)o1`, the Potency is reported as inconclusive [inhibitor, partial curve, poor fit]. `COC(=O)c1ccc(COc2ccc(F)cc2)o1` was tested, and the Potency was inconclusive [inhibitor, full curve, poor fit].
